The source of these data is a collection of fitness landscapes (doi:10.1126/science.1257360).

This is one part of the list.

Sequences and labels used below:
B1: PhoQ; a variant is named by its letters at X, in order, P23837 (parent)
chain: MKKLLRLFFPLSLRVRFLLATAAVVLVLSLAYGMVALIGYSVSFDKTTFRLLRGESNLFYTLAKWENNKLHVELPENIDKQSPTMTLIYDENGQLLWAQRDVPWLMKMIQPDWLKSNGFHEIEADVNDTSLLLSGDHSIQQQLQEVREDDDDAEMTHSVAVNVYPATSRMPKLTIVVVDTIPVELKSSYMVWSWFIYVLSANLLLVIPLLWVAAWWSLRPIEALAKEVRELEEHNRELLNPATTRELTSLVRNLNRLLKSERERYDKYRTTLTDLTHSLKTPLXXLQXXLRSLRSEKMSVSDAEPVMLEQISRISQQIGYYLHRASMRGGTLLSRELHPVAPLLDNLTSALNKVYQRKGVNISLDISPEISFVGEQNDFVEVMGNVLDNACKYCLEFVEISARQTDEHLYIVVEDDGPGIPLSKREVIFDRGQRVDTLRPGQGVGLAVAREITEQYEGKIVAGESMLGGARMEVIFGRQHSAPKDE

The variants in the assay derive from B1. Briefly: enrichment ratio after two sorts for PhoP signalling (ratio (wild type AVST 3.29)); higher = more functional. The following applies: with PhoP (E. coli).
For PEPI, the enrichment ratio was not above 0.25.

In the case of DPSI, the enrichment ratio was not above 0.25.

Take FIMD: the enrichment ratio is not above 0.25.

For WYGM, the enrichment ratio was not above 0.25.

Consider SNFG, for which the enrichment ratio is not above 0.25.

KEMG: the enrichment ratio was not above 0.25.

As for KVVR, the enrichment ratio is not above 0.25.

IMAA: the enrichment ratio is not above 0.25.

In the case of QLVV, the enrichment ratio was not above 0.25.

With VNGT, the enrichment ratio is not above 0.25.

Turning to PVTP, the enrichment ratio was not above 0.25.

Turning to MPHS, the enrichment ratio is not above 0.25.

Turning to VIHK, the enrichment ratio was not above 0.25.

For the variant LFQH, the enrichment ratio was not above 0.25.

Regarding PWVG, the enrichment ratio is not above 0.25.

For VKSP, the enrichment ratio was not above 0.25.

As for QMPF, the enrichment ratio is not above 0.25.

Turning to FLLQ, the enrichment ratio came to 0.481.

With LYYF, the enrichment ratio is not above 0.25.

Take DLGH: the enrichment ratio is not above 0.25.

On to LHKW, for which the enrichment ratio was not above 0.25.

As to SFRL, the enrichment ratio is not above 0.25.

Turning to YEWS, the enrichment ratio is not above 0.25.

On to TGRQ, for which the enrichment ratio was not above 0.25.

Consider PMIM, for which the enrichment ratio is not above 0.25.

For the variant FGHR, the enrichment ratio was not above 0.25.

For VLIS, the enrichment ratio is not above 0.25.

With TASK, the enrichment ratio came to 0.795.

Consider GRED, for which the enrichment ratio was not above 0.25.

Turning to NHRK, the enrichment ratio was not above 0.25.

Consider ARRS, for which the enrichment ratio is not above 0.25.

Turning to GTWQ, the enrichment ratio is not above 0.25.

HEKD: the enrichment ratio was not above 0.25.

In the case of ARKH, the enrichment ratio was not above 0.25.

With SYGG, the enrichment ratio was not above 0.25.

Turning to MFYY, the enrichment ratio was not above 0.25.

In the case of MVVL, the enrichment ratio was not above 0.25.

Consider FFGF, for which the enrichment ratio was not above 0.25.

With NELE, the enrichment ratio was not above 0.25.

With HAKP, the enrichment ratio was not above 0.25.

On to GWAH, for which the enrichment ratio was not above 0.25.

As to AVAQ, the enrichment ratio was not above 0.25.

RQMM: the enrichment ratio was not above 0.25.

Consider KDTL, for which the enrichment ratio was not above 0.25.

On to YHVV, for which the enrichment ratio is not above 0.25.

Take VGLN: the enrichment ratio was not above 0.25.

As to ASNT, the enrichment ratio was not above 0.25.

Turning to WKTH, the enrichment ratio is not above 0.25.

With RVIV, the enrichment ratio was not above 0.25.

As for YWLS, the enrichment ratio was not above 0.25.

As to NLCE, the enrichment ratio was not above 0.25.

For VNPA, the enrichment ratio was not above 0.25.

On to TTEG, for which the enrichment ratio was not above 0.25.

In the case of LCVV, the enrichment ratio was not above 0.25.

TTQR: the enrichment ratio was not above 0.25.

Consider MYPH, for which the enrichment ratio was not above 0.25.

For YDQM, the enrichment ratio is not above 0.25.

With GVMS, the enrichment ratio is not above 0.25.

On to SWDM, for which the enrichment ratio is not above 0.25.

As for HGAI, the enrichment ratio was not above 0.25.

Consider HNFF, for which the enrichment ratio was not above 0.25.

Consider QGWH, for which the enrichment ratio was not above 0.25.

On to EFPL, for which the enrichment ratio is not above 0.25.

Regarding QDLC, the enrichment ratio is not above 0.25.

In the case of LNPM, the enrichment ratio was not above 0.25.

For the variant KLSF, the enrichment ratio is not above 0.25.

Turning to KTIK, the enrichment ratio was not above 0.25.

For WYWE, the enrichment ratio is not above 0.25.

Take SLWH: the enrichment ratio is not above 0.25.

With VLSY, the enrichment ratio was 0.334.

Take ARLW: the enrichment ratio was not above 0.25.

Regarding ITDC, the enrichment ratio was not above 0.25.

Take LVPI: the enrichment ratio was not above 0.25.

For the variant SFDY, the enrichment ratio is not above 0.25.

As for LSTF, the enrichment ratio is not above 0.25.

Turning to WRRP, the enrichment ratio was not above 0.25.

Turning to RGGY, the enrichment ratio is not above 0.25.

For DNAS, the enrichment ratio was not above 0.25.

In the case of QIGL, the enrichment ratio worked out at 1.32.

On to TPLV, for which the enrichment ratio is not above 0.25.

Take EHSS: the enrichment ratio was not above 0.25.

In the case of IGLD, the enrichment ratio is not above 0.25.

As to AQII, the enrichment ratio is 7.96.

Turning to MAFN, the enrichment ratio stood at 10.5.

Take INWW: the enrichment ratio is not above 0.25.

In the case of SHRK, the enrichment ratio was not above 0.25.

Consider QFCP, for which the enrichment ratio was not above 0.25.

Consider VART, for which the enrichment ratio is not above 0.25.

Regarding VPYR, the enrichment ratio is not above 0.25.

As to FGVD, the enrichment ratio is not above 0.25.

TNHC: the enrichment ratio was not above 0.25.

On to FFRH, for which the enrichment ratio was not above 0.25.

Regarding LVPC, the enrichment ratio is not above 0.25.

For GRKL, the enrichment ratio is not above 0.25.

In the case of KGVW, the enrichment ratio was not above 0.25.

For the variant DCLW, the enrichment ratio is not above 0.25.

For FDWC, the enrichment ratio was not above 0.25.

Consider GFDT, for which the enrichment ratio was not above 0.25.

For the variant MMWK, the enrichment ratio is not above 0.25.

On to PYNT, for which the enrichment ratio was not above 0.25.

Turning to DWKI, the enrichment ratio is not above 0.25.

FCFR: the enrichment ratio is not above 0.25.

With QYWG, the enrichment ratio was found to be 16.3.

As for LDDY, the enrichment ratio was not above 0.25.

NSYE: the enrichment ratio is not above 0.25.

As to HMLQ, the enrichment ratio is not above 0.25.

HRDE: the enrichment ratio was not above 0.25.

Take LVLP: the enrichment ratio is not above 0.25.

In the case of RPGP, the enrichment ratio was not above 0.25.

Take PSWR: the enrichment ratio is not above 0.25.

As to QVDS, the enrichment ratio was found to be 1.54.

With TESS, the enrichment ratio is 15.

Consider GDAN, for which the enrichment ratio is not above 0.25.

As to RCCQ, the enrichment ratio is not above 0.25.

In the case of PVNL, the enrichment ratio is not above 0.25.

Regarding LTRI, the enrichment ratio is not above 0.25.

In the case of GIGN, the enrichment ratio was not above 0.25.

Regarding EGQT, the enrichment ratio was not above 0.25.

Consider ELSC, for which the enrichment ratio was not above 0.25.

In the case of GPQI, the enrichment ratio was not above 0.25.

With QPFK, the enrichment ratio was not above 0.25.

For RGDM, the enrichment ratio is not above 0.25.

With SWYQ, the enrichment ratio was not above 0.25.

For HLRP, the enrichment ratio is not above 0.25.

On to SVFG, for which the enrichment ratio is not above 0.25.

As for YMWQ, the enrichment ratio was not above 0.25.

Regarding LPNN, the enrichment ratio was not above 0.25.

For YRRF, the enrichment ratio is not above 0.25.

Regarding LFMN, the enrichment ratio is not above 0.25.

With HFNR, the enrichment ratio is not above 0.25.

Consider HSQS, for which the enrichment ratio was not above 0.25.

Turning to KYFA, the enrichment ratio is not above 0.25.

For GISF, the enrichment ratio was found to be 8.06.

For EFAG, the enrichment ratio is not above 0.25.

Take EFSQ: the enrichment ratio was not above 0.25.

As for QIGP, the enrichment ratio is not above 0.25.

Turning to AKTS, the enrichment ratio worked out at 5.9.

Regarding HIWL, the enrichment ratio was not above 0.25.

In the case of GYYF, the enrichment ratio was not above 0.25.

VVFD: the enrichment ratio was not above 0.25.

Regarding KDLF, the enrichment ratio is not above 0.25.

On to PNTW, for which the enrichment ratio was not above 0.25.

Turning to YWHM, the enrichment ratio is not above 0.25.

With NQTD, the enrichment ratio was not above 0.25.

In the case of DRLT, the enrichment ratio is not above 0.25.

For the variant TMQT, the enrichment ratio is 1.6.

For the variant HYIP, the enrichment ratio is not above 0.25.

With TGHC, the enrichment ratio came out at 0.782.

On to VMVD, for which the enrichment ratio is not above 0.25.

For the variant KTCW, the enrichment ratio was not above 0.25.

Turning to PTLA, the enrichment ratio was not above 0.25.

As for IARA, the enrichment ratio was not above 0.25.

Turning to IPFD, the enrichment ratio was not above 0.25.
